# Laboratory results from PubChem BioAssay AID1948 (National Center for Advancing Translational Sciences (NCATS), 2009).
# In all, about 110,000 compounds went through this assay and about 20 (0.02%) were called active. Inconclusive means that the source gave no clear call. Such entries were picked first, then a sample of the others. The call rests on the fitted dose curve; in most records, active means well fitted activation curve with a large enough effect; inconclusive means small, poorly fitted or top-dose-only effect; inactive means no such curve, though single readings can be large or run the other way. Potencies of inconclusive entries are left out as doubtful fits.
# Test: qHTS Assay for Compounds that Induce Erasure of Genomic Imprints;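 on activity change, positive = activation: 0% = negative control wells on the plate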
# Conditions: mouse ES Peg3-LacZ reporter, beta-gal luminescence, 40 h; activity change, positive = activation: at 10.9 µM (top of the series) unless noted
# Method in brief: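 Readout: BetaGlo luminescence (5 min, room temp) for LacZ from the normally silent maternal Peg3 allele in female Peg3LacZ-Neo ES cells. Cells 300/well, 40 h, 37C, 5% CO2. Data normalized per plate to negative controls.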
# Potency means the concentration at half of the fitted maximal effect; tags describe the fitted curve by direction and shape.
SMILES,"activity change, positive = activation",Potency
COc1cccc(-c2nn(C)c3sc(C(=O)N4CCN(c5cccc(C(F)(F)F)c5)CC4)cc23)c1,inconclusive: 44% [activator],
CCNC(=O)CC1C(=O)N(c2cccc(OC)c2)C(=O)N1CCOC (configuration not stated),,"inconclusive [activator, partial curve]"
CCCCC(=O)Nc1cc(-c2cn3cccnc3n2)ccc1C,inactive: -9.15%,
CC(=O)c1cccc(NC(=O)c2c(N3CCCC3=O)c3cc(F)ccc3n2C)c1,inactive: 8.82%,
CC(=O)N1CCCc2cc(S(=O)(=O)N3CCC(C(=O)NCc4cccc(C)c4)CC3)ccc21,inconclusive: 64.4% [activator],
Clc1ccc(C2=Nn3c(nnc3-c3cccnc3)SC2)s1,inactive: -6.1% [at 60.7 µM],
Nc1cnn([C@@H]2O[C@H](CO)[C@@H](O)[C@H]2O)c(=O)n1,inactive: 4.91% [at 60.7 µM],
CCc1ccc2oc(C(=O)Nc3cccc(C(F)(F)F)c3)cc(=O)c2c1,inconclusive: 32.4% [activator],
N=C(N)SCCc1ccccn1,,"inconclusive [activator, single point]"
Cc1ccc2nc(-c3cc(NC(=O)c4ccc5c(c4)OCCO5)ccc3Cl)oc2c1,inconclusive: 45% [activator],
O=S(=O)(Nc1ccccc1F)c1ccc2nsnc2c1,,"inconclusive [activator, single point]"
O=C(Nc1ccc(N2CCCC2=O)cc1)c1cccc(F)c1,inactive: -85.6% [at 60.7 µM],
CCOC(=O)c1cccc(Nc2c3c(nc4ccccc24)CCC3)c1,inconclusive: 39.3% [activator],
COc1ccc(-c2nc3cnc(OC)nc3n(C[C@H]3CCCO3)c2=O)cc1,inactive: 3.08% [at 60.7 µM],
COc1ccc(C)cc1NC(=O)c1cnc2sccn2c1=O,,"inconclusive [activator, partial curve]"
Cc1cccc(Cn2c(CNS(=O)(=O)c3ccc4c(c3)CCCC4)nc3cccnc32)c1,inactive: 3.41%,
CCOc1ccc(-c2cccc(NS(=O)(=O)c3c(C)cc(C)cc3C)c2)nn1,inactive: 6.4%,
COC(=O)c1ccccc1NC(=O)CSc1nc2ccsc2c(=O)n1CCC(C)C,inconclusive: 53.8% [activator],
Cc1cccc(NC(=O)CCS(=O)(=O)c2ccc3c(c2)n(C)c(=O)c(=O)n3C)c1C,inconclusive: 95.7% [activator],

SMILES,"activity change, positive = activation",Potency
NC1=NC(=O)CC(C(=O)NCc2ccccc2)S1 (configuration not stated),,"inconclusive [activator, single point]"
CCCNC(=O)C1CCN(S(=O)(=O)c2ccc(Br)cc2)CC1,,"inconclusive [activator, partial curve]"
COc1ccccc1CNC(=O)CCCc1nnc2n(CC(C)C)c(=O)c3sccc3n12,inactive: 12.2%,
CCOc1ccccc1NC(=O)CN1C(=O)COc2ccc(S(=O)(=O)Nc3ccccc3)cc21,inconclusive: 32.7% [activator],
O=C(Nc1ccc(S(=O)(=O)N2CCCCC2c2cccnc2)cc1)c1ccc(F)cc1 (configuration not stated),inconclusive: 33% [activator],
COc1cc(Cl)c(C)cc1NC(=O)c1ccc(CN2C(=O)CCn3nc(C)cc32)cc1,inconclusive: 44.9% [activator],
Oc1c(C(c2ccccc2Cl)N2CCOCC2)sc2nc(-c3ccco3)nn12 (configuration not stated),inconclusive: 63.1% [activator],
O=C(CCCn1c(=S)[nH]c2cc3c(cc2c1=O)OCO3)N1CCN(c2ccc(F)cc2)CC1,,"inconclusive [activator, single point]"
COc1cccc(C(=O)Nc2nc3nc(C)c(C)c(=O)n3[nH]2)c1,inconclusive: 31.1% [activator],
Cc1cccc(C)c1NC(=O)CCS(=O)(=O)c1ccc2c(c1)CC(C)N2C(=O)C1CC1 (configuration not stated),inconclusive: 36.3% [activator],
CCN(CC)c1ccc(NC(=O)CN2CCN(CC(=O)Nc3ccccc3F)CC2)cc1,,"inconclusive [activator, single point]"
COc1cccc(-n2c(SCC(=O)Nc3ccc(F)cc3F)nc3c([nH]c4ccccc43)c2=O)c1,inconclusive: 33.1% [activator],
c1ncc(-c2ccoc2)c(NC2CC2)n1,,"inconclusive [activator, full curve, poor fit]"
CCc1ccc(Cn2c(CNS(=O)(=O)c3ccc4c(c3)CCCC4)nc3cccnc32)cc1,inconclusive: 48.8% [activator],
Cc1ccccc1CN1c2ccccc2-c2nc(SCC(=O)Nc3cc(F)ccc3F)ncc2S1(=O)=O,inconclusive: 48.1% [activator],
O=C(O)c1ccc(Nc2nc3ccccc3c3nncn23)cc1,inconclusive: 65.4% [activator],
COc1ccc(Oc2ncc3nc(-c4ccc(Cl)cc4)c(=O)n(C4CC4)c3n2)cc1,,"inconclusive [activator, full curve]"
CCOC(=O)c1c(S(=O)(=O)N2CCCC(C(=O)N(C)Cc3ccccc3)C2)c(C)n(C)c1C (configuration not stated),inconclusive: 33.7% [activator],
